Results on 87 molecules are retold here after PubChem BioAssay AID1346428 (National Center for Advancing Translational Sciences (NCATS), 2018).

Screen size: about 48,000 compounds; about 1,200 (2.5%) were called active. Not shown: some 2% with an inconclusive outcome.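 The calls were made as follows: active = activation of at least 60% and not above a set upper limit (about 1 call in 100 departs from these limits); inconclusive = activation of 40% to 60%, or above that upper limit; inactive = activation under 40%.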 The list shows a part of the results.

This assay addresses Probable G-protein coupled receptor 32 (Homo sapiens) (UniProt O75388). Nature of the assay: qHTS for Agonists of Human Resolvin D1 Receptor DRV1. Also: 0% is about no effect. The conditions noted are these: CHO-K1 GPR32 beta-arrestin PathHunter luminescence, 90 min; at 76.9 µM; hits give high values; zero percent set by DMSO-only wells. The essentials: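 Cells are plated overnight, treated with compounds in DMSO for 90 minutes at 37 °C, and developed with PathHunter detection reagent for 1 hour before luminescence is read; signal reflects beta-arrestin binding to GPR32 in engineered CHO-K1 cells.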
UniProt O75388, sequence (O75388 whole entry, looked up): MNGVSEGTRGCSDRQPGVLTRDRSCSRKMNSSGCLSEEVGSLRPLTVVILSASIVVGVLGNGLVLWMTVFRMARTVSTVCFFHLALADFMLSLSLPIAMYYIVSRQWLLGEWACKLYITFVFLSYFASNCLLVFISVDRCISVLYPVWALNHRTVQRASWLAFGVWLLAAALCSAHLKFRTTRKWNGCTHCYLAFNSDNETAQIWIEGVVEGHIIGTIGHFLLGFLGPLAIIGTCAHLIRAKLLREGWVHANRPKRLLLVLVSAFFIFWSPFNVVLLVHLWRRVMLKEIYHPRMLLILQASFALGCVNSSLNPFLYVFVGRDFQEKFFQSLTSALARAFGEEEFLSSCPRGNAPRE
For `N#CCC(=O)NN`, the activation is inactive: 9.05%.
Regarding `COc1ccc(Cl)cc1NC(=O)N1CCN(S(=O)(=O)c2ccc3c(ccn3C)c2)CC1`, the activation is inactive: -10%.
In the case of `CC(C)(C)OC(=O)N1CCC(c2c(C(=O)NCc3cccs3)cnn2-c2cccc(F)c2)CC1`, the activation is inactive: -13.6%.
To `CCOc1ccc(NCc2cccn2-c2nnc(N3CCC(C(=O)NCc4ccccc4Cl)CC3)s2)cc1` belongs inactive: -24.3%.
With `O=C(c1ccc(F)cc1)N1CCc2c([nH]c3ccccc23)C1c1ccc(Cl)cc1` (configuration not stated), the activation was inactive: -34.7%.
For `CCc1ccc(OCCSc2nc3ccccc3n2CC(=O)N2CCCCC2)cc1` the value was inactive: -32%; for `COc1ccccc1N1CCN(c2ncnc3c2c(-c2ccccc2)cn3-c2cccc(Cl)c2)CC1`, inactive: -27.5%; for `CCc1nn(C(CC)C(=O)NCc2ccc(OC)c(OC)c2)c(=O)c2cc3oc(C)cc3n12` (configuration not stated), inactive: 18.2%.
As for `Cc1nn(-c2nc(-c3ccccc3)cc(C(F)(F)F)n2)c(C)c1Cl`, the activation is inactive: -13.7%.
Take `COc1cc(/C=C(\C#N)c2nc3ccc(C)cc3[nH]2)ccc1OCc1ccc(C)cc1`: the activation is inactive: -3.21%.
For `CCOc1ccc2c(c1)c(=O)c(C(=O)c1ccc3c(c1)OCO3)cn2Cc1ccc(F)cc1`, the activation was inactive: -14.8%.
On to `CC(N)CCCC(C)(C)O` (configuration not stated), for which the activation is inactive: -4.71%.
As for `CCCCNC(=O)c1cccc(NC(=O)c2nsc3ccccc23)c1`, the activation was inactive: -9.14%.
Regarding `COc1ccc(S(=O)(=O)N2CCC(Oc3ccc(-n4cnnn4)cc3)CC2)cc1`, the activation is inactive: 3.56%.
For `COc1cccc(OC)c1C(=O)NCCc1sc(-c2cccc(F)c2)nc1C` the value was inactive: 48.3%.
Consider `CCN(C(=O)c1cn(-c2cccc(OC)c2)c(=O)c2ccccc12)c1ccccc1C`, for which the activation is inactive: -16%.
Take `CCc1ccc(C2C(C(=O)Nc3ccccc3OC)=C(C)Nc3c(C(=O)Nc4ccc(C)cc4)cnn32)cc1` (configuration not stated): the activation is inactive: -14.7%.
Regarding `CC(=O)Nc1ccc(NC(=O)c2nc(S(=O)(=O)Cc3ccc(F)cc3)ncc2Cl)cc1`, the activation is inactive: -19.9%.
In the case of `COc1cccc(CNC(=O)c2cnc3c(-c4ccc(F)cc4)c(C)nn3c2C)c1`, the activation is inactive: -14.8%.
`Cc1ccc(C)c(NC(=O)CSc2nccn2-c2cccc(C)c2C)c1`: the activation was inactive: 10.9%.
`COc1ccc(C(=O)Nc2ccccc2-c2nc3ccccc3s2)cc1OC`: the activation is inactive: 8.11%.
As to `COc1ccc(-n2c(SCC(=O)NCc3ccc(Cl)cc3)nc3ccsc3c2=O)cc1`, the activation was inactive: -2.55%.
For `COc1ccc(-n2nnnc2C2CCN(S(=O)(=O)c3cccc(C(F)(F)F)c3)CC2)cc1`, the activation was inactive: -2.43%.
Regarding `COc1cccc(NC(=O)C(Cc2ccccc2)N2Cc3ccccc3C2=O)c1` (configuration not stated), the activation was inactive: -1.64%.
Take `COc1nccnc1NS(=O)(=O)c1ccc(N)cc1`: the activation is inactive: -6.01%.
For `Cc1ccc(NC(=O)CCCc2nc(-c3ccco3)no2)cc1Cl` the value was inactive: -14.1%; for `COc1ccc(NS(=O)(=O)c2ccc(N3CCCCS3(=O)=O)cc2)cc1Cl`, inactive: 11.8%.
`CC(C)CCOc1ccc(C(=O)NCC2OCCc3ccccc32)cc1` (configuration not stated): the activation is inactive: 24.8%.
As to `COc1ccc(-c2noc(CCC(=O)N(C)c3cc(Cl)ccc3OC)n2)cc1`, the activation was inactive: 30%.
As to `COc1cccc(-n2c(=O)c3cc(OC)c(OC)cc3n(CC(=O)Nc3ccc(F)cc3)c2=O)c1`, the activation was inactive: 1.17%.
For `CCCn1c2ccc(F)cc2c2nnc(SCCN3CCCCC3)nc21` the value was inactive: -18.5%.
As for `CCC(=O)N1CCc2cc(Br)cc(S(=O)(=O)CCC(=O)Nc3cccc(Cl)c3)c21`, the activation is inactive: -5.52%.
With `CCCc1cnc2c(c1SCC(=O)Nc1ccccc1OCC)c(=O)n(C)c(=O)n2C`, the activation was inactive: -6.83%.
For the molecule `CCS(=O)(=O)N1CCCc2cc(C(=O)Nc3cccc(C(C)=O)c3)ccc21`, the activation is inactive: 13.7%.
For `COc1cc(NC(=O)c2cccc(Cl)c2Cl)ccc1NC(=O)c1cc2ccccc2o1` the value was inactive: 4.08%.
For `CCOc1ccc(C(=O)N(Cc2ccc(C(C)C)cc2)Cc2ccco2)cc1`, the activation is inactive: -13.5%.
To `Clc1ccc(-c2nnn3c2nc(NC2CCCCC2)c2ccccc23)cc1` belongs inactive: -5.09%; to `CCOc1ccc(Nc2ncnc3c2c(-c2ccccc2)cn3-c2cccc(C)c2)cc1`, inactive: -13.5%.
In the case of `Cc1cc2c(cc1NS(=O)(=O)c1ccc(Br)cc1)n(C)c(=O)c(=O)n2C`, the activation is inactive: -12.3%.
As for `CC(C)(C)c1ccc(S(=O)(=O)/C=C/C#N)cc1`, the activation was inactive: -24.6%.
For `Cc1cccc(C)c1NC(=O)CN1CCCC1` the value was inactive: -11.8%; for `CCCSCCCNC(=O)c1ccc(C)c(NC(=O)c2nsc3ccccc23)c1`, inactive: -23.3%.
On to `CCOc1ccc(CCn2c3c(c(=O)[nH]c2=O)C(NC(=O)c2cccc(F)c2)(C(F)(F)F)C(=O)N3)cc1OCC` (configuration not stated), for which the activation was inactive: 2.89%.
In the case of `Cc1c(CCNC(=O)c2c(F)cccc2F)sc2nc(-c3ccc(F)cc3)nn12`, the activation is inactive: -22%.
For `CC(=O)N(c1onc(C)c1C)S(=O)(=O)c1ccc(N)cc1`, the activation was inactive: 26.1%.
To `COc1cc(-c2nc3sccn3c2Nc2c(C)cccc2C)ccc1O` belongs inactive: -17%; to `Cc1cc(O)cc(C)c1Cl`, inactive: 25.1%.
Regarding `O=C(Cc1ccc(-c2ccccc2)cc1)NCCS(=O)(=O)N1CCN(c2ccc(F)cc2)CC1`, the activation was inactive: -7.33%.
With `Cn1ncc2c(N3CCN(c4ccc(F)cc4)CC3)ncnc21`, the activation was inactive: 14.2%.
On to `CC(=O)N1CCCc2ccc(NS(=O)(=O)c3cccc(Cl)c3)cc21`, for which the activation is inactive: 0.338%.
As for `O=C1Cc2cc(S(=O)(=O)N3CCN(c4cccc(Cl)c4)CC3)ccc2N1`, the activation was inactive: -6.64%.
For `CC(=O)N1CCCC1c1nc2ccccc2n1Cc1ccccc1Cl` (configuration not stated), the activation is inactive: -36.2%.
Consider `Cc1cc(Nc2ccc(Br)cc2)nc(C)n1`, for which the activation is inactive: -7.53%.
With `Cc1cccc(C)c1-n1ncc(C(=O)NCCCN2CCC(C)CC2)c1C1CCN(C(=O)OC(C)(C)C)CC1`, the activation was inactive: -11.1%.
`CCC1CN(C(=O)N2CCC(C(=O)NCCc3ccc(OC)cc3OC)CC2)c2cc(C)ccc2O1` (configuration not stated): the activation was inactive: -23.4%.
Turning to `Cc1cccc(OCc2nc(CC(=O)Nc3ccc(Cl)cc3)cs2)c1`, the activation was inactive: 15.9%.
For `COc1cccc(CSc2nc3ccncc3n2CC(=O)Nc2ccc(OC)c(OC)c2OC)c1`, the activation is inactive: -20.4%.
As to `CCOC(=O)c1cnc2c(ccc3ccccc32)c1Nc1ccc(C(C)=O)cc1`, the activation is inactive: 6.55%.
Consider `COc1ccccc1CNC(=O)Cc1csc2nc(-c3ccc(F)cc3)cn12`, for which the activation is inactive: -20.4%.
Turning to `CCc1cc2c(cc3c(=O)n(CC(=O)NC(C)c4ccccc4)ncn32)s1` (configuration not stated), the activation is inactive: -12.3%.
As for `O=S(=O)(c1ccc(Cl)cc1)c1nc(-c2cccs2)oc1N1CCCCC1`, the activation was inactive: -16.1%.
As to `CCOC(=O)c1sc2ccccc2c1S(=O)(=O)NCc1ccccc1OC`, the activation was inactive: -16.1%.
Regarding `CCc1ccccc1NC(=O)C1CCN(S(=O)(=O)c2cn(C)cn2)CC1`, the activation was inactive: -6.34%.
For `COc1cccc(NC(=O)CCN2C(=O)c3ccccc3Sc3ncccc32)c1`, the activation is inactive: 5.16%.
For `Cc1cc(C)nc(-n2nc(C)c3c2N(Cc2ccccc2F)C(=O)CC3c2ccc(Cl)cc2)n1` (configuration not stated) the value was inactive: -20.4%; for `CCOC(=O)C1CCCN(C(=O)c2ccc3c(c2)sc2nc(-c4cccc(OC)c4)cn23)C1` (configuration not stated), inactive: -8.16%.
Regarding `CCOCCc1nn2c(=O)cc(COC(=O)c3ccccc3OC)nc2s1`, the activation is inactive: -6.63%.
To `COCCCn1c(SCc2cccc(Cl)c2)nc2c(sc3ccccc32)c1=O` belongs inactive: -0.758%; to `COc1ccc(CCCc2nnc(SCC(=O)Nc3cccc(F)c3C)o2)cc1`, active: 65.7%.
On to `Cc1ccccc1-c1noc(CSc2nc3ccccc3[nH]2)n1`, for which the activation was inactive: 31.4%.
Turning to `O=C(NCCc1ccccc1)c1cc(Nc2ccccc2)nc2ccccc12`, the activation is inactive: 6.91%.
`CCc1ccccc1Nc1nn2c(=O)c3ccc(C(=O)NCCC4=CCCCC4)cc3nc2s1`: the activation was inactive: -8.63%.
Regarding `Cc1cc(=O)n2nc(N(C)CC(=O)NCc3ccccc3C)sc2n1`, the activation is inactive: 0%.
Take `CCCC(=O)Nc1cccc(OCc2cc(=O)n3cccc(C)c3n2)c1`: the activation was inactive: -9.1%.
With `CCOCCc1nnc(NC(=O)C(=O)c2cc(C)n(-c3ccc(C)cc3C)c2C)s1`, the activation is inactive: -12.6%.
With `COc1ccc(N(CC(=O)Nc2cccc(Cl)c2)S(=O)(=O)c2c(C)[nH]c(=O)[nH]c2=O)cc1`, the activation was inactive: -9.64%.
Regarding `CCOc1ccc(Nc2nc(-c3cccc(Cl)c3)c3c(n2)-c2ccccc2OC3)cc1`, the activation is inactive: -24.9%.
Regarding `CCn1c(C)c(C)c2cc(C(=O)NCC(C)c3ccccc3)ccc21` (configuration not stated), the activation is inactive: -27.4%.
As to `COc1ccc2c(c1)c1c(c(=O)n(Cc3ccccc3)c(=O)n1CC(=O)Nc1ccccc1OC)n2C`, the activation was inactive: -76.3%.
To `COc1ccc(N2CCN(CCCNC(=O)C3COc4ccccc4C3)CC2)cc1` (configuration not stated) belongs inactive: -15.9%.
For the molecule `O=C(c1ccc2c(Cl)c3c(nc2c1)CCCC3)N1CCN(c2ccc(Cl)cc2)CC1`, the activation was inactive: -1.96%.
For `O=C(Nc1nc2c(F)cc(F)cc2s1)c1ccc(S(=O)(=O)N2CCc3ccccc32)cc1` the value was inactive: -5.96%.
Consider `C[C@@H](O[C@H]1OCCN(Cc2n[nH]c(=O)[nH]2)[C@H]1c1ccc(F)cc1)c1cc(C(F)(F)F)cc(C(F)(F)F)c1`, for which the activation is inactive: 27.3%.
With `COC(=O)c1ccc(N2C(=O)Cc3cc(OC)c(OC)cc3C2c2ccc(F)cc2)cc1` (configuration not stated), the activation is inactive: 15.8%.
As to `Oc1cccc(O)c1`, the activation is inactive: -2.17%.
Consider `CCN1C(C(=O)c2ccccc2)=C(OC(=O)COc2ccc(C)cc2)c2ccccc2S1(=O)=O`, for which the activation was inactive: -63.2%.
Turning to `Cc1ccc(CNC(=O)CSc2nc3c(sc4ccccc43)c(=O)n2CCCC(=O)NCCO)cc1`, the activation was inactive: -1.1%.
